Results reported in PubChem BioAssay AID463173 (ICCB-Longwood Screening Facility, Harvard Medical School, 2010).
Screen size: about 52,000 compounds; about 4,300 (8.3%) were called active. Cut-off read from the data, not from the text of the source: active = survival mostly below about 52% (no sharp cut-off); inactive = mostly above about 56%. Some of the results follow.

test system: DeltatarO mutant; assay: S. aureus survival, RN4220 and DeltatarO strains – OD600, teichoic acid synthesis inhibitors, primary screen (AID 463173); settings: S. aureus RN4220 wild type/DeltatarO growth, OD600, 18 h, stronger effect = lower value, screened at 18.75 µg/mL (by protocol)

| Structure (SMILES) | survival |
| --- | --- |
| CC1CCn2c(nc3cc(C(=O)NCc4ccccc4)ccc32)C1 (stereo not given) | inactive: 83% |
| Cc1ccc(C)c(N2CCN(C(=O)C3CCCN(Cc4nc(-c5cccc(Cl)c5)oc4C)C3)CC2)c1 (stereo not given) | inactive: 78% |
| O=C(CNC(=O)c1ccccc1)OCc1cc(=O)n2ccsc2n1 | inactive: 77% |
| CC(=O)c1ccc(NC(=O)c2cc(S(=O)(=O)N3CCCCCC3)cn2C)cc1 | inactive: 78% |
| CC1CCCC(C)N1S(=O)(=O)c1ccccc1 (stereo not given) | inactive: 79% |
| Cc1ccc(NC(=O)CCCc2nnc3n(C)c(=O)c4sccc4n23)cc1F | inactive: 72% |
| COc1ccc(-c2nc3c(c(SCC(=O)Nc4ccccc4F)n2)Cc2cc(C)ccc2O3)cc1 | inactive: 98% |
| COc1ccc(-c2nnc(SCC(=O)NC3CCCC3)nc2-c2ccc(OC)c(OC)c2)cc1OC | active: 47% |
| CCOc1ccc(N2CC(c3nc4ccccc4n3Cc3ccccc3F)CC2=O)cc1 (stereo not given) | inactive: 103% |
| O=C(NCc1ccccc1)C1CCN(S(=O)(=O)c2ccc3c(c2)CCCN3C(=O)C2CCC2)CC1 | inactive: 78% |
| Cc1ccc(N2CC(NC(=O)c3ccc(S(=O)(=O)N4CCCC4)cc3)CC2=O)cc1C (stereo not given) | inactive: 83% |
| Nc1nc2ccccc2n1C(=O)c1ccccc1 | inactive: 83% |
| CCn1cc(C(=O)NCCCN2CCCC(C)C2)c(=O)c2cc(S(=O)(=O)N(C)C3CCCCC3)ccc21 (stereo not given) | inactive: 97% |
| Cc1cc(C)cc(-n2ccn(CC(=O)Nc3cc(C)ccc3C)c(=O)c2=O)c1 | inactive: 60% |
| COc1ccc(CCNc2nc(-c3ccc(OC)c(OC)c3)cc(C(F)(F)F)n2)cc1OC | active: 4% |
| Cc1cccc(CS(=O)(=O)Cc2ccc(C(=O)NCCc3ccccc3)o2)c1 | inactive: 89% |
| Cc1ccc(-c2cn(-c3cccc(Cl)c3)c(S(=O)(=O)CC(=O)Nc3cccc(C)c3)n2)cc1 | inactive: 67% |
| CCOC(=O)c1c(S(=O)(=O)N2CCCC(C(=O)NCc3cccc(OC)c3)C2)c(C)n(C)c1C (stereo not given) | inactive: 117% |
| COc1ccc(OC)c(NC(=O)c2cc(S(=O)(=O)NCCc3ccc(Cl)cc3)ccc2F)c1 | inactive: 70% |
| CCC(C)NC(=O)Cn1c(=O)n(-c2ccc(C)c(C)c2)c(=O)c2c3c(sc21)CCCCC3 (stereo not given) | inactive: 80% |
| CCCCc1nn2c(=O)cc(COC(=O)C3CCCCC3)nc2s1 | inactive: 75% |
| Cc1nc2nc(SCC(=O)NC3CCC(C)CC3)nn2c(C)c1Cc1ccccc1 (stereo not given) | inactive: 92% |
| CCOc1ccc(OCC)c(NC(=O)c2ccc(-c3ccccc3)s2)c1 | active: 27% |

| Structure (SMILES) | survival |
| --- | --- |
| N#Cc1ccc(N2CCOCC2)cc1C#N | inactive: 78% |
| CCOc1ccc(CCNC(=O)c2sc3ncccc3c2-n2cccc2)cc1OCC | inactive: 63% |
| COC(=O)c1ccc(-c2nc3cc(NC(C)=O)ccc3o2)cc1 | inactive: 149% |
| CCOc1ccc(NC(=O)c2ccc(F)c(S(=O)(=O)N(CC)Cc3ccccc3)c2)cc1 | inactive: 78% |
| O=C(CCC1N=C2c3ccccc3N=C(SCc3cccc(F)c3)N2C1=O)NCc1cccs1 (stereo not given) | inactive: 83% |
| CCOC(=O)c1scc(-c2ccc(C)cc2)c1S(=O)(=O)N1CCN(c2ccccc2F)CC1 | inactive: 109% |
| Cc1ccc(Cl)cc1N1CCN(C(=O)CCNS(=O)(=O)c2ccc3c(c2)CCN3C(=O)C2CC2)CC1 | inactive: 77% |
| COCCNC(=O)c1cc2ccccc2o1 | inactive: 104% |
| CCCCCSc1ncnc2c1sc1nc(N3CCOCC3)c3c(c12)CCCC3 | inactive: 69% |
| Cc1ccc(NC(=O)NCc2cccn2Cc2ccccc2)c(C)c1 | inactive: 76% |
| C1=C(C(c2nnnn2C2CCCCC2)N2CCCCC2)COc2ccccc21 (stereo not given) | inactive: 86% |
| CC(C)c1ccc(S(=O)(=O)c2nnn3c2nc(N2CCCCC2)c2sccc23)cc1 | inactive: 49% |
| COc1cccc(C(=O)Nc2ccc(-c3cc(C(F)(F)F)nn3-c3ccccc3)cc2)c1 | inactive: 46% |
| COc1ccc(COC(=O)C2=C(C)NC3(O)c4ccccc4C(=O)C23O)cc1 (stereo not given) | inactive: 90% |
| Cc1ccc(C)c(Cn2c(-c3cccs3)nc3ccccc32)c1 | active: -3% |
| Cc1ccc(C)c(CN2C(=O)N(c3cc(Cl)ccc3C)S(=O)(=O)c3ccccc32)c1 | inactive: 83% |
| CC(C)Cc1ccc(S(=O)(=O)Nc2cc3c(cc2N2CCOCC2)n(C)c(=O)c(=O)n3C)cc1 | inactive: 79% |
| CC(=O)c1cccc(NC(=O)c2cc(-c3ccc(Cl)s3)nc3ccccc23)c1 | inactive: 77% |
| CCn1c(CNC(=O)c2ccccc2)n[nH]c1=S | inactive: 86% |
| COc1ccc(NC(=O)CC2C(=O)N(c3cccc(C)c3)C(=O)N2C2CCCCC2)cc1 (stereo not given) | inactive: 69% |
| COc1ccc(-c2nnc(SCC(=O)Nc3ccc(C(C)C)cc3)nc2-c2ccc(OC)c(OC)c2)cc1OC | inactive: 86% |
| CCNc1nc2n(c(=O)n1)CCN2CC | inactive: 86% |
| Cc1cc(/C=C(\C#N)C(=O)NCc2cccs2)c(C)n1C1CCCC1 | inactive: 117% |

| Structure (SMILES) | survival |
| --- | --- |
| NNC(=O)CCc1nc2ccccc2[nH]1 | inactive: 67% |
| Cc1cccc(N2CCN(C(=O)c3cn(CC(C)C)c(=O)c4c3c3ccccc3n4C)CC2)c1C | inactive: 95% |
| COc1ccc(-c2ccc(NS(=O)(=O)c3ccc(C(C)=O)cc3)cc2)nn1 | inactive: 67% |
| Cc1ccc(NS(=O)(=O)c2c(C)[nH]c(=O)[nH]c2=O)c(C)c1 | inactive: 46% |
| CC1CC(C)CN(C(=O)Cn2c(SCC(=O)N(C(C)C)C(C)C)nc3ccccc32)C1 (stereo not given) | inactive: 97% |
| COc1cccc(N2CC(NC(=O)CCCc3ccccc3)CC2=O)c1 (stereo not given) | inactive: 69% |
| Cc1ccc(-c2noc(CNC(=O)c3ccc(Br)o3)n2)cc1 | inactive: 75% |
| COc1cc(S(=O)(=O)N2CCN(C)CC2)c(C)cc1C | inactive: 78% |
| CCC(C(=O)Nc1c(C)cc(C)cc1C)n1c(=O)c(-c2ccccc2NC(C)=O)nc2ccccc21 (stereo not given) | inactive: 88% |
| CN(Cc1ccccc1)S(=O)(=O)c1cc(Br)cc2c1N(C(=O)C1CC1)CC2 | active: 34% |
| COc1ccc(NC(=O)CSc2nnc(NC(=O)Nc3ccc(OC)cc3)s2)cc1 | inactive: 87% |
| Oc1cc2ccsc2c2ccccc12 | active: 9% |
| CCN(CCCNC(=O)CN1N=C(c2ccc(OC)cc2)CCC1=O)c1cccc(C)c1 | inactive: 123% |
| CCCCN(C)CCCNC(=O)c1cc(-c2ccc(Br)s2)nc2ccccc12 | inactive: 33% |
| COc1cccc(Nc2sc(C(=O)c3ccc(F)cc3)c(N)c2C(=O)NCc2ccc(Cl)cc2)c1 | active: 8% |
| Cc1cccc(NC(=O)CCCCCn2c(=O)[nH]c3ccsc3c2=O)c1 | active: 33% |
| CC(C)c1ccc(CN(Cc2ccco2)c2cnc(S(C)(=O)=O)nc2C(=O)Nc2ccc(F)cc2)cc1 | inactive: 49% |
| Cc1ccc(C(=O)Nc2cc3nn(-c4ccccc4)nc3cc2Cl)c(C)c1 | inactive: 78% |
| N#C/C(=C\c1ccc(Cl)cc1Cl)c1nc(-c2cccc(Cl)c2)cs1 | inactive: 79% |
| CCOc1ccccc1N(CC(=O)NCCSc1ccccc1)S(=O)(=O)c1ccccc1 | inactive: 55% |
| COc1ccccc1Cc1nc2ccccc2nc1SCC(=O)N(C)c1ccc(F)cc1 | inactive: 83% |
| COc1ccccc1C(=O)Nc1ccncc1 | inactive: 78% |
| Cc1cccc(N2CCN(C(=O)Nc3cn(CC(C)C)c(=O)c4ccccc34)CC2)c1C | inactive: 69% |

| Structure (SMILES) | survival |
| --- | --- |
| Cc1nnc(N2CCC(C(=O)NCCc3ccccc3Cl)CC2)c2nn(-c3ccccc3)c(C)c12 | inactive: 123% |
| CCOc1ccccc1CNC(=O)C1CCN(c2nn3cc(-c4ccc(F)cc4)nc3s2)CC1 | inactive: 67% |
| CCCCCCOc1ccc(C2C(=O)N(C3CCCCC3)CC(=O)N2CCC)cc1 (stereo not given) | inactive: 94% |
| Cc1cccc(N2CCN(C(=O)c3cccc(-n4c(C)nc5cccnc54)c3)CC2)c1C | inactive: 104% |
| Cc1cc(C)c(C(=O)O)c(=O)[nH]1 | inactive: 60% |
| COc1ccc(Cn2c(=O)c3oc4ccccc4c3n(Cc3cccc(C(F)(F)F)c3)c2=O)cc1 | inactive: 73% |
| Cc1nn(-c2ccccc2)c2c1N(CC(=O)N1CCN(c3cccc(Cl)c3)CC1)C(=O)CS2 | inactive: 75% |
| O=C(c1ccc2c(=O)n(CCc3ccccc3)c(=O)[nH]c2c1)N1CCN(c2ccc(F)cc2)CC1 | inactive: 111% |
| COc1cccc(N2CC(NC(=O)c3ccco3)CC2=O)c1 (stereo not given) | active: 37% |
| COc1ccc(N=C2SC(C(=O)Nc3ccccc3)CC(=O)N2C)cc1 (stereo not given) | inactive: 91% |
| CCc1nn(CC(=O)NCCCN(CC(C)C)CC(C)C)c(=O)c2cc3sc(C)cc3n12 | inactive: 133% |
| O=C(O)c1ccc(/C=N/n2cnnc2)cc1 | inactive: 111% |
| CCOC(=O)/C(C#N)=C/c1ccc2c(c1)c1ccccc1n2CC | inactive: 91% |
| CCCCN(C)C(=O)C1CCCN(c2ncnc3onc(C)c23)C1 (stereo not given) | inactive: 113% |
| CCN(CC)c1cc2c(cc1F)c(=O)c(S(=O)(=O)c1ccc(OC)cc1)cn2CC | inactive: 102% |
| CCOCCCNc1ccc(-c2ccccc2)nn1 | inactive: 97% |
| CCOc1ccc(CNC(=O)C2CCCN(S(=O)(=O)c3ccc4c(ccn4C)c3)C2)cc1 (stereo not given) | inactive: 92% |
| Cc1ccccc1-n1c(SCc2ccc(Cl)cc2)nc2[nH]ncc2c1=O | inactive: 92% |
| COc1cccc(N2CCN(C(=O)CCc3c(C)nc4c(c3C)c(=O)n(C)c(=O)n4C)CC2)c1 | inactive: 98% |
| CCC(C)NC(=O)c1ccc2c(c1)N(Cc1ccccc1)C(=O)c1ccccc1S2 (stereo not given) | inactive: 92% |
| CCOC(=O)c1cccnc1SCC(=O)Nc1ccc(C)cc1C | inactive: 79% |
